# Results taken from paper PMC5681660, “Reduced hepatitis B and D viral entry using clinically applied drugs as novel inhibitors of the bile acid transporter NTCP” (Scientific Reports, 2017).
# Biological target: T1, human NTCP (Homo sapiens, UniProt Q14973)
# T1 sequence (Q14973 1-349): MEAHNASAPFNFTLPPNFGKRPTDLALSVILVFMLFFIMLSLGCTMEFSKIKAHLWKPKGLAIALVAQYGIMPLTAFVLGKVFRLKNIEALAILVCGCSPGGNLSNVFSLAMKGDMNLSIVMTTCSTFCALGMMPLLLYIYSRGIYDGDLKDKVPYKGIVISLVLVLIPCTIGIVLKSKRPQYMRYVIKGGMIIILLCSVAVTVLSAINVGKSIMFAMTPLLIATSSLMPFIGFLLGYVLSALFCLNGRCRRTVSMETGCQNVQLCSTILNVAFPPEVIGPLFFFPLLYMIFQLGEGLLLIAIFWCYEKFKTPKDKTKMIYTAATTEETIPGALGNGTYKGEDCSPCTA
# Test: Screening taurocholate uptake assay (96-well, [14C]taurocholate, 10 µM drug)
# Conditions: not given
row,SMILES,%NTCP activity
1,CCN(CC)CCNC(C(=O)OCCC(C)C)c1ccccc1.Cl.Cl (stereo not drawn) [Camylofine chlorhydrate],107.759%
2,CC(C)C[C@H]1C(=O)N2CCC[C@H]2[C@]2(O)O[C@](NC(=O)[C@@H]3C=C4c5cccc6[nH]c(Br)c(c56)C[C@H]4N(C)C3)(C(C)C)C(=O)N12.CS(=O)(=O)O [Bromocryptine mesylate],68.1662%
3,O=C([O-])[C@H]1/C(=C/CO)O[C@@H]2CC(=O)N21.[K+] [Clavulanate potassium salt],71.7498%
4,Cl.O=c1[nH]oc2c1CCNC2 [THIP Hydrochloride],85.8813%
5,C[N+]1(CCCCC[N+]2(C)CCCC2)CCCC1.O=C([O-])C(O)C(O)C(=O)O.O=C([O-])C(O)C(O)C(=O)O [Pentolinium bitartrate],114.556%
6,N=C(N)NCC1COC2(CCCCC2)O1.N=C(N)NCC1COC2(CCCCC2)O1.O=S(=O)(O)O (stereo not drawn) [Guanadrel sulfate],89.1345%

# Same assay, conditions: 10 min, read-out: %NTCP activity
row,SMILES,remaining activity at 10 µM
1,CC(C)(Oc1ccc(C2CC2(Cl)Cl)cc1)C(=O)O (stereo not drawn) [Ciprofibrate],72.3%
2,CN1[C@@H]2CC[C@H]1C[C@@H](OC(c1ccccc1)c1ccccc1)C2 [Benztropine mesylate],79.9%
3,COCCCOc1ccnc(C[S+]([O-])c2nc3ccccc3[nH]2)c1C (stereo not drawn) [Rabeprazole Sodium salt],120%
4,CC[C@@]1(O)C(=O)OCc2c1cc1n(c2=O)Cc2cc3c(CN(C)C)c(O)ccc3nc2-1 [Topotecan],107%
5,OC[C@H]1O[C@@H](Oc2ccc(O)cc2)[C@H](O)[C@@H](O)[C@@H]1O [Arbutin],92.7%
6,CC1Cc2ccccc2N1NC(=O)c1ccc(Cl)c(S(N)(=O)=O)c1 (stereo not drawn) [Indapamide],130%
7,Cc1cc(=O)oc2cc(O)ccc12 [Hymecromone],51.2%
8,Cc1ccsc1/C=C/C1=NCCCN1C [Morantel tartrate],126%
9,Nc1ccc(S(=O)(=O)Nc2ccc(Cl)nn2)cc1 [Sulfachloropyridazine],138%
10,CC1(C)O[C@@H]2C[C@H]3[C@@H]4C[C@H](F)C5=CC(=O)CC[C@]5(C)[C@H]4[C@@H](O)C[C@]3(C)[C@]2(C(=O)CO)O1 [Flurandrenolide],108%
11,CC1=C(C(=O)O)N2C(=O)[C@@H](NC(=O)[C@H](N)c3ccc(O)cc3)[C@H]2SC1 [Cefadroxil],43.2%
12,CCN[C@H]1C[C@H](C)S(=O)(=O)c2sc(S(N)(=O)=O)cc21 [Dorzolamide hydrochloride],87.8%
13,CCCCc1oc2ccccc2c1C(=O)c1cc(I)c(OCCN(CC)CC)c(I)c1 [Amiodarone hydrochloride],37.4%
14,CCN1CCC[C@H]1CNC(=O)c1c(O)c(Cl)cc(Cl)c1OC [Raclopride],34.5%
15,N=C(N)N1CCc2ccccc2C1 [Debrisoquin sulfate],112%
16,CN(C)C(=O)Oc1cccc([N+](C)(C)C)c1 [Neostigmine bromide],64.5%
17,CCCCOc1cc(C(=O)NCCN(CC)CC)c2ccccc2n1 [Dibucaine],113%
18,COc1cc([S+](C)[O-])ccc1-c1nc2ncccc2[nH]1 (stereo not drawn) [Sulmazole],124%
19,CC(C)(C)NCC(O)COc1cccc2c1CCC(=O)N2 (stereo not drawn) [Carteolol hydrochloride],46.6%
20,O=C(O)COCCN1CCN(C(c2ccccc2)c2ccc(Cl)cc2)CC1 (stereo not drawn) [Cetirizine dihydrochloride],64.3%
21,CC(=O)OCC(=O)[C@@]1(O)CC[C@H]2[C@@H]3CCC4=CC(=O)CC[C@]4(C)[C@@]3(F)[C@@H](O)C[C@@]21C [Fludrocortisone acetate],36.3%

# Biological target: T1, human NTCP
# Test: Screening fluorescent competitive Myrcludex B-FITC binding assay (96-well, 10 µM drug)
# Conditions: 0.5 h, read-out: %NTCP binding
row,SMILES,remaining activity at 10 µM
1,CC(C)(Oc1ccc(C2CC2(Cl)Cl)cc1)C(=O)O (stereo not drawn) [Ciprofibrate],91.9%
2,CN1[C@@H]2CC[C@H]1C[C@@H](OC(c1ccccc1)c1ccccc1)C2 [Benztropine mesylate],87.8%
3,COCCCOc1ccnc(C[S+]([O-])c2nc3ccccc3[nH]2)c1C (stereo not drawn) [Rabeprazole Sodium salt],75.7%
4,CC[C@@]1(O)C(=O)OCc2c1cc1n(c2=O)Cc2cc3c(CN(C)C)c(O)ccc3nc2-1 [Topotecan],96.1%
5,OC[C@H]1O[C@@H](Oc2ccc(O)cc2)[C@H](O)[C@@H](O)[C@@H]1O [Arbutin],108%
6,CC1Cc2ccccc2N1NC(=O)c1ccc(Cl)c(S(N)(=O)=O)c1 (stereo not drawn) [Indapamide],55.7%
7,Cc1cc(=O)oc2cc(O)ccc12 [Hymecromone],122%
8,Nc1ccc(S(=O)(=O)Nc2ccc(Cl)nn2)cc1 [Sulfachloropyridazine],71.4%
9,CC1(C)O[C@@H]2C[C@H]3[C@@H]4C[C@H](F)C5=CC(=O)CC[C@]5(C)[C@H]4[C@@H](O)C[C@]3(C)[C@]2(C(=O)CO)O1 [Flurandrenolide],72.3%
10,CC1=C(C(=O)O)N2C(=O)[C@@H](NC(=O)[C@H](N)c3ccc(O)cc3)[C@H]2SC1 [Cefadroxil],73%
11,CCN[C@H]1C[C@H](C)S(=O)(=O)c2sc(S(N)(=O)=O)cc21 [Dorzolamide hydrochloride],90.6%
12,CCCCc1oc2ccccc2c1C(=O)c1cc(I)c(OCCN(CC)CC)c(I)c1 [Amiodarone hydrochloride],50.7%
13,CCN1CCC[C@H]1CNC(=O)c1c(O)c(Cl)cc(Cl)c1OC [Raclopride],46.6%
14,N=C(N)N1CCc2ccccc2C1 [Debrisoquin sulfate],70.8%
15,CCCCOc1cc(C(=O)NCCN(CC)CC)c2ccccc2n1 [Dibucaine],116%
16,COc1cc([S+](C)[O-])ccc1-c1nc2ncccc2[nH]1 (stereo not drawn) [Sulmazole],64.6%
17,CC(C)(C)NCC(O)COc1cccc2c1CCC(=O)N2 (stereo not drawn) [Carteolol hydrochloride],46.2%
18,O=C(O)COCCN1CCN(C(c2ccccc2)c2ccc(Cl)cc2)CC1 (stereo not drawn) [Cetirizine dihydrochloride],76.3%
19,CC(=O)OCC(=O)[C@@]1(O)CC[C@H]2[C@@H]3CCC4=CC(=O)CC[C@]4(C)[C@@]3(F)[C@@H](O)C[C@@]21C [Fludrocortisone acetate],72.5%

# Same assay, conditions: 0.5 h, read-out: %NTCP binding, Prestwick library screen, Myrcludex B-FITC binding, 10 µM drug
row,SMILES,remaining activity at 10 µM
1,CN(C)C(=O)Oc1cccc([N+](C)(C)C)c1 [Neostigmine bromide],64.6%

# Same assay, conditions: 0.5 h, read-out: %NTCP binding, screen, 10 µM drug, Myrcludex B-FITC binding
row,SMILES,remaining activity at 10 µM
1,Cc1ccsc1/C=C/C1=NCCCN1C [Morantel tartrate],111%

# Same assay, conditions: Prestwick library screen, 10 µM drug, Myrcludex B-FITC binding
row,SMILES,%NTCP binding
1,CCN(CC)CCNC(C(=O)OCCC(C)C)c1ccccc1.Cl.Cl (stereo not drawn) [Camylofine chlorhydrate],83.2082%
2,O=C([O-])[C@H]1/C(=C/CO)O[C@@H]2CC(=O)N21.[K+] [Clavulanate potassium salt],108.427%

# Same assay, conditions: screen, 10 µM drug, Myrcludex B-FITC binding
row,SMILES,%NTCP binding
1,CC(C)C[C@H]1C(=O)N2CCC[C@H]2[C@]2(O)O[C@](NC(=O)[C@@H]3C=C4c5cccc6[nH]c(Br)c(c56)C[C@H]4N(C)C3)(C(C)C)C(=O)N12.CS(=O)(=O)O [Bromocryptine mesylate],81.5861%
2,Cl.O=c1[nH]oc2c1CCNC2 [THIP Hydrochloride],94.9831%
3,C[N+]1(CCCCC[N+]2(C)CCCC2)CCCC1.O=C([O-])C(O)C(O)C(=O)O.O=C([O-])C(O)C(O)C(=O)O [Pentolinium bitartrate],76.0867%
4,N=C(N)NCC1COC2(CCCCC2)O1.N=C(N)NCC1COC2(CCCCC2)O1.O=S(=O)(O)O (stereo not drawn) [Guanadrel sulfate],87.7743%

# Where a name gives a salt, the structure may show the parent alone.
